The densities may have been worked out from excess volumes.
Assay: xn = mol fraction of the nth substance listed
Conditions: 101 kPa, x2 = 0.0138

CCCC[n+]1ccn(C)c1.N#C[C-](C#N)C#N + O
Conditions	mass density [kg/m3]
293.15 K	1050.9
298.15 K	1047.4
303.15 K	1044.1
308.15 K	1040.7
313.15 K	1037.3
318.15 K	1034
323.15 K	1030.7
338.15 K	1020.8
343.15 K	1017.6
353.15 K	1011.1
358.15 K	1007.9
363.15 K	1004.7

Source: a compilation of properties of binary mixtures (doi:10.1021/je500765m)
